Source: the supplement of paper PMC4967469
By IC50 is meant the dose at which the fit gives 50% viability; fits outside the tested doses are given as limits. For AUC the same curve is integrated over the 256-fold range of doses and scaled to a fraction; the more sensitive the line, the further below 1. An inferred top dose is not printed in the source and was worked back from the curve model.

Compound: Cn1cc(C2=C(c3cn(C4CCN(Cc5ccccn5)CC4)c4ccccc34)C(=O)NC2=O)c2ccccc21 [LY317615]
Assay: Viability of human cancer cell lines after 72 h of drug (GDSC screen)
Conditions: top dose inferred
Description: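 Human cancer cell lines in 384-well plates, medium with 10% serum, drug for 72 h over a 256-fold dose range (nine 2-fold or five 4-fold steps up to the top dose). Adherent lines were fixed and stained with the nucleic acid dye Syto60, suspension lines read with resazurin; signal relative to control wells, capped at 0 and 100%. One two-parameter sigmoid per drug and line, fitted in a mixed model over all curves with the slope shared within a line.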

Point of comparison: “NCI-H596 (lung adenocarcinoma, adherent, top dose 20 µM)”, AUC 0.957. Against it:
- TMK-1 (stomach, adherent, top dose 20 µM) — higher, 0.959
- IST-MES1 (mesothelioma, adherent, top dose 20 µM) — lower, 0.908
- COR-L279 (small cell lung carcinoma, suspension, top dose 20 µM) — higher, 0.988
- KYSE-520 (oesophagus, adherent, top dose 20 µM) — lower, 0.434
- MOG-G-UVW (glioma, adherent, top dose 20 µM) — lower, 0.85
- GT3TKB (stomach, adherent, top dose 20 µM) — higher, 0.985
- DU-4475 (breast, suspension, top dose 20 µM) — lower, 0.725
- NCI-H1648 (lung adenocarcinoma, adherent, top dose 20 µM) — lower, 0.518
- H4 (glioma, adherent, top dose 20 µM) — lower, 0.808
- H2803 (mesothelioma, adherent, top dose 20 µM) — lower, 0.821
- DB (B-cell lymphoma, suspension, top dose 20 µM) — lower, 0.784
- PANC-02-03 (pancreas, adherent, top dose 20 µM) — lower, 0.852
- LS-180 (large intestine, adherent, top dose 20 µM) — lower, 0.935
- NCI-H1876 (small cell lung carcinoma, adherent, top dose 20 µM) — higher, 0.974
- NUGC-3 (stomach, adherent, top dose 20 µM) — lower, 0.956
- HCC1143 (breast, adherent, top dose 20 µM) — lower, 0.716
- SHP-77 (small cell lung carcinoma, semi-adherent, top dose 20 µM) — lower, 0.919
- NCI-H647 (non-small cell lung carcinoma, adherent, top dose 20 µM) — lower, 0.436
- SK-MEL-28 (melanoma, adherent, top dose 20 µM) — lower, 0.919
- ALL-SIL (T-cell leukaemia, suspension, top dose 20 µM) — lower, 0.445
- EN (endometrium, adherent, top dose 20 µM) — higher, 0.974
- BHY (head and neck, adherent, top dose 20 µM) — lower, 0.814
- HCC1599 (breast, suspension, top dose 20 µM) — lower, 0.765
- SW48 (large intestine, adherent, top dose 20 µM) — lower, 0.931
- CAL-27 (head and neck, adherent, top dose 20 µM) — lower, 0.873
- NCI-H1437 (lung adenocarcinoma, adherent, top dose 20 µM) — lower, 0.499
- NCI-H1299 (large cell lung carcinoma, adherent, top dose 20 µM) — lower, 0.949
- DMS-53 (small cell lung carcinoma, adherent, top dose 20 µM) — higher, 0.986
- HC-1 (hairy cell leukaemia, suspension, top dose 20 µM) — lower, 0.823
- NCI-H2171 (small cell lung carcinoma, suspension, top dose 20 µM) — lower, 0.946
- D-566MG (glioma, adherent, top dose 20 µM) — lower, 0.535
- HO-1-N-1 (head and neck, adherent, top dose 20 µM) — lower, 0.93
- SK-PN-DW (Ewing sarcoma, adherent, top dose 20 µM) — lower, 0.914
- A4-Fuk (B-cell lymphoma, suspension, top dose 20 µM) — lower, 0.873
- FU97 (stomach, adherent, top dose 20 µM) — lower, 0.947
- HT-1080 (fibrosarcoma, adherent, top dose 20 µM) — higher, 0.959
- ABC-1 (lung adenocarcinoma, adherent, top dose 20 µM) — lower, 0.928
- JSC-1 (B-cell lymphoma, suspension, top dose 20 µM) — lower, 0.885
- SF126 (glioma, adherent, top dose 20 µM) — higher, 0.984
- KYSE-70 (oesophagus, adherent, top dose 20 µM) — lower, 0.889
- SW620 (large intestine, adherent, top dose 20 µM) — lower, 0.548
- ES3 (Ewing sarcoma, adherent, top dose 20 µM) — lower, 0.844
- Hs766T (pancreas, adherent, top dose 20 µM) — lower, 0.87
- P31-FUJ (acute myeloid leukaemia, suspension, top dose 20 µM) — lower, 0.919
- SNU-61 (large intestine, adherent, top dose 20 µM) — lower, 0.625
- IST-SL2 (small cell lung carcinoma, suspension, top dose 20 µM) — lower, 0.876
- HuCCT1 (biliary tract, adherent, top dose 20 µM) — lower, 0.675
- U-2-OS (osteosarcoma, adherent, top dose 20 µM) — higher, 0.981
- Calu-3 (lung adenocarcinoma, adherent, top dose 20 µM) — higher, 0.979
- EFM-19 (breast, adherent, top dose 20 µM) — lower, 0.36
- NCI-H322M (lung adenocarcinoma, suspension, top dose 20 µM) — lower, 0.733
- NCI-H526 (small cell lung carcinoma, suspension, top dose 20 µM) — higher, 0.975
- NCI-H747 (large intestine, adherent, top dose 20 µM) — lower, 0.442
- MKN28 (stomach, adherent, top dose 20 µM) — lower, 0.935
- SiHa (cervix, adherent, top dose 20 µM) — higher, 0.987
- KARPAS-620 (haematopoietic neoplasm, suspension, top dose 20 µM) — lower, 0.858
- HDQ-P1 (breast, adherent, top dose 20 µM) — lower, 0.888
- HCC-15 (lung squamous cell carcinoma, adherent, top dose 20 µM) — lower, 0.793
- GI-1 (glioma, adherent, top dose 20 µM) — higher, 0.963
- GAMG (glioma, adherent, top dose 20 µM) — lower, 0.723
- HT-29 (large intestine, adherent, top dose 20 µM) — lower, 0.6
- ML-1 (thyroid, adherent, top dose 20 µM) — lower, 0.907
- 786-0 (kidney, adherent, top dose 20 µM) — lower, 0.584
- KP-N-YS (neuroblastoma, adherent, top dose 20 µM) — lower, 0.833
- HCC1569 (breast, adherent, top dose 20 µM) — lower, 0.667
- NCI-H1568 (lung adenocarcinoma, adherent, top dose 20 µM) — higher, 0.98
- NCI-H1304 (small cell lung carcinoma, suspension, top dose 20 µM) — lower, 0.954
- RKN (ovary, adherent, top dose 20 µM) — higher, 0.98
- ARH-77 (myeloma, suspension, top dose 20 µM) — lower, 0.836
- SNU-C5 (large intestine, adherent, top dose 20 µM) — higher, 0.962
- NCC021 (kidney, adherent, top dose 20 µM) — higher, 0.983
- NCI-H2009 (lung adenocarcinoma, adherent, top dose 20 µM) — higher, 0.98
- SUIT-2 (pancreas, adherent, top dose 20 µM) — lower, 0.932
- JHH-7 (liver, adherent, top dose 20 µM) — lower, 0.956
- SW872 (soft tissue, adherent, top dose 20 µM) — lower, 0.919
- CHP-134 (neuroblastoma, suspension, top dose 20 µM) — the same, 0.957
- NCI-H1395 (lung adenocarcinoma, adherent, top dose 20 µM) — lower, 0.782
- ES8 (Ewing sarcoma, adherent, top dose 20 µM) — lower, 0.907
- KYSE-180 (oesophagus, adherent, top dose 20 µM) — lower, 0.947

Point of comparison: “D-566MG (glioma, adherent, top dose 20 µM)”, IC50 1.55 µM. Against it:
- TMK-1 (stomach, adherent, top dose 20 µM) — higher, > 20 µM
- IST-MES1 (mesothelioma, adherent, top dose 20 µM) — higher, > 20 µM
- COR-L279 (small cell lung carcinoma, suspension, top dose 20 µM) — higher, > 20 µM
- KYSE-520 (oesophagus, adherent, top dose 20 µM) — 2-fold lower, 0.777 µM
- MOG-G-UVW (glioma, adherent, top dose 20 µM) — 9.4-fold higher, 14.6 µM
- GT3TKB (stomach, adherent, top dose 20 µM) — higher, > 20 µM
- DU-4475 (breast, suspension, top dose 20 µM) — 3-fold higher, 4.69 µM
- NCI-H1648 (lung adenocarcinoma, adherent, top dose 20 µM) — within 1.5-fold, 1.41 µM
- H4 (glioma, adherent, top dose 20 µM) — 6.6-fold higher, 10.2 µM
- H2803 (mesothelioma, adherent, top dose 20 µM) — 9.1-fold higher, 14.1 µM
- DB (B-cell lymphoma, suspension, top dose 20 µM) — 6.2-fold higher, 9.67 µM
- PANC-02-03 (pancreas, adherent, top dose 20 µM) — higher, > 20 µM
- LS-180 (large intestine, adherent, top dose 20 µM) — higher, > 20 µM
- NCI-H1876 (small cell lung carcinoma, adherent, top dose 20 µM) — higher, > 20 µM
- NUGC-3 (stomach, adherent, top dose 20 µM) — higher, > 20 µM
- HCC1143 (breast, adherent, top dose 20 µM) — 4.3-fold higher, 6.6 µM
- SHP-77 (small cell lung carcinoma, semi-adherent, top dose 20 µM) — higher, > 20 µM
- NCI-H647 (non-small cell lung carcinoma, adherent, top dose 20 µM) — 1.9-fold lower, 0.826 µM
- SK-MEL-28 (melanoma, adherent, top dose 20 µM) — higher, > 20 µM
- ALL-SIL (T-cell leukaemia, suspension, top dose 20 µM) — 1.7-fold lower, 0.907 µM
- EN (endometrium, adherent, top dose 20 µM) — higher, > 20 µM
- BHY (head and neck, adherent, top dose 20 µM) — 7.1-fold higher, 11 µM
- HCC1599 (breast, suspension, top dose 20 µM) — 5.4-fold higher, 8.33 µM
- SW48 (large intestine, adherent, top dose 20 µM) — higher, > 20 µM
- CAL-27 (head and neck, adherent, top dose 20 µM) — 13-fold higher, 19.9 µM
- NCI-H1437 (lung adenocarcinoma, adherent, top dose 20 µM) — within 1.5-fold, 1.24 µM
- NCI-H1299 (large cell lung carcinoma, adherent, top dose 20 µM) — higher, > 20 µM
- DMS-53 (small cell lung carcinoma, adherent, top dose 20 µM) — higher, > 20 µM
- HC-1 (hairy cell leukaemia, suspension, top dose 20 µM) — 7.2-fold higher, 11.2 µM
- NCI-H2171 (small cell lung carcinoma, suspension, top dose 20 µM) — higher, > 20 µM
- HO-1-N-1 (head and neck, adherent, top dose 20 µM) — higher, > 20 µM
- SK-PN-DW (Ewing sarcoma, adherent, top dose 20 µM) — higher, > 20 µM
- A4-Fuk (B-cell lymphoma, suspension, top dose 20 µM) — higher, > 20 µM
- FU97 (stomach, adherent, top dose 20 µM) — higher, > 20 µM
- HT-1080 (fibrosarcoma, adherent, top dose 20 µM) — higher, > 20 µM
- ABC-1 (lung adenocarcinoma, adherent, top dose 20 µM) — higher, > 20 µM
- JSC-1 (B-cell lymphoma, suspension, top dose 20 µM) — higher, > 20 µM
- SF126 (glioma, adherent, top dose 20 µM) — higher, > 20 µM
- KYSE-70 (oesophagus, adherent, top dose 20 µM) — higher, > 20 µM
- SW620 (large intestine, adherent, top dose 20 µM) — within 1.5-fold, 1.66 µM
- ES3 (Ewing sarcoma, adherent, top dose 20 µM) — 10-fold higher, 15.5 µM
- Hs766T (pancreas, adherent, top dose 20 µM) — higher, > 20 µM
- P31-FUJ (acute myeloid leukaemia, suspension, top dose 20 µM) — 11-fold higher, 17.6 µM
- SNU-61 (large intestine, adherent, top dose 20 µM) — 2-fold higher, 3.09 µM
- IST-SL2 (small cell lung carcinoma, suspension, top dose 20 µM) — 13-fold higher, 19.7 µM
- HuCCT1 (biliary tract, adherent, top dose 20 µM) — 2.6-fold higher, 4.08 µM
- U-2-OS (osteosarcoma, adherent, top dose 20 µM) — higher, > 20 µM
- Calu-3 (lung adenocarcinoma, adherent, top dose 20 µM) — higher, > 20 µM
- EFM-19 (breast, adherent, top dose 20 µM) — 3.7-fold lower, 0.42 µM
- NCI-H322M (lung adenocarcinoma, suspension, top dose 20 µM) — 4.4-fold higher, 6.88 µM
- NCI-H526 (small cell lung carcinoma, suspension, top dose 20 µM) — higher, > 20 µM
- NCI-H747 (large intestine, adherent, top dose 20 µM) — 1.8-fold lower, 0.838 µM
- MKN28 (stomach, adherent, top dose 20 µM) — higher, > 20 µM
- SiHa (cervix, adherent, top dose 20 µM) — higher, > 20 µM
- KARPAS-620 (haematopoietic neoplasm, suspension, top dose 20 µM) — 8.3-fold higher, 12.8 µM
- HDQ-P1 (breast, adherent, top dose 20 µM) — higher, > 20 µM
- HCC-15 (lung squamous cell carcinoma, adherent, top dose 20 µM) — 7.8-fold higher, 12.1 µM
- GI-1 (glioma, adherent, top dose 20 µM) — higher, > 20 µM
- GAMG (glioma, adherent, top dose 20 µM) — 3.6-fold higher, 5.56 µM
- HT-29 (large intestine, adherent, top dose 20 µM) — 1.5-fold higher, 2.35 µM
- ML-1 (thyroid, adherent, top dose 20 µM) — higher, > 20 µM
- 786-0 (kidney, adherent, top dose 20 µM) — within 1.5-fold, 2.07 µM
- KP-N-YS (neuroblastoma, adherent, top dose 20 µM) — 10-fold higher, 15.7 µM
- HCC1569 (breast, adherent, top dose 20 µM) — 2.8-fold higher, 4.27 µM
- NCI-H596 (lung adenocarcinoma, adherent, top dose 20 µM) — higher, > 20 µM
- NCI-H1568 (lung adenocarcinoma, adherent, top dose 20 µM) — higher, > 20 µM
- NCI-H1304 (small cell lung carcinoma, suspension, top dose 20 µM) — higher, > 20 µM
- RKN (ovary, adherent, top dose 20 µM) — higher, > 20 µM
- ARH-77 (myeloma, suspension, top dose 20 µM) — 8.1-fold higher, 12.6 µM
- SNU-C5 (large intestine, adherent, top dose 20 µM) — higher, > 20 µM
- NCC021 (kidney, adherent, top dose 20 µM) — higher, > 20 µM
- NCI-H2009 (lung adenocarcinoma, adherent, top dose 20 µM) — higher, > 20 µM
- SUIT-2 (pancreas, adherent, top dose 20 µM) — higher, > 20 µM
- JHH-7 (liver, adherent, top dose 20 µM) — higher, > 20 µM
- SW872 (soft tissue, adherent, top dose 20 µM) — higher, > 20 µM
- CHP-134 (neuroblastoma, suspension, top dose 20 µM) — higher, > 20 µM
- NCI-H1395 (lung adenocarcinoma, adherent, top dose 20 µM) — 7.4-fold higher, 11.4 µM
- ES8 (Ewing sarcoma, adherent, top dose 20 µM) — higher, > 20 µM
- KYSE-180 (oesophagus, adherent, top dose 20 µM) — higher, > 20 µM
